{
  "source": "patent US20100119516A1",
  "about": "“ANTI-TGF-BETA RECEPTOR II ANTIBODIES” (priority 2008, published 2010)",
  "molecules": {"B1": {"name": "mAb TGF2: anti-human TGFβRII human IgG1 mAb; HCVR SEQ ID NO: 29, LCVR SEQ ID NO: 31, HC SEQ ID NO: 41, LC SEQ ID NO: 43 (antibody)", "heavy": "QVQLVQSGAAVKKPGESLKISCKGSGYRFTSYWIGWVRQMPGKGLEWMGIIYPGDSDTRYSPSFQGQVTISAGKSISTAYLQWSSLKASDTAMYYCARHGRGYNGYEGAFDIWGQGTMVTVSSASTKGPSVFPLAPSSKSTSGGTAALGCLVKDYFPEPVTVSWNSGALTSGVHTFPAVLQSSGLYSLSSVVTVPSSSLGTQTYICNVNHKPSNTKVDKRV[here human IgG1 Fc without letters]", "light": "[here about 200 residues without letters]"}},
  "key": {"[1]": {"molecular_target": "T1, extracellular domain of human TGFβRII (Homo sapiens, UniProt P37173)", "T1 construct": "made in house", "T1 sequence (P37173 23-166)": "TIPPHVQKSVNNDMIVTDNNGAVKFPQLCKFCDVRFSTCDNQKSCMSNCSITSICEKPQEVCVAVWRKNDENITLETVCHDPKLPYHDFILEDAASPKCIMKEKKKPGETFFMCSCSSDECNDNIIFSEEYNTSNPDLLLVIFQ", "experiment": "Surface plasmon resonance (BIAcore 2000), human TGFβRII extracellular domain", "assay_type": "binding", "conditions": "room temperature (20-25° C.)", "experimental": "Kinetic analyses of the mAbs are performed by immobilization of a fusion protein of recombinant extracellular domain of either mouse TGFβRII (SEQ ID NO: 51), or the extracellular domain of human TGFβRII (SEQ ID NO: 52) linked, respectively, with either mouse or human Fc or heavy chain constant region, onto a sensor surface at a concentration of from 5 to 100 nM."}, "[2]": {"molecular_target": "T2, mouse TGFβRII (Mus musculus, UniProt Q62312)", "T2 construct": "made in house", "T2 sequence (Q62312 24-184 isoform Q62312-1)": "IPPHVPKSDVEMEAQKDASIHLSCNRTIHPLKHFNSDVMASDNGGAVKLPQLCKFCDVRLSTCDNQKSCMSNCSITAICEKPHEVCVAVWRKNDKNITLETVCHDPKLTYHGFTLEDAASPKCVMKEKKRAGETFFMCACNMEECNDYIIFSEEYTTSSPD", "experiment": "Species specificity of anti-human TGFβRII mAbs by ELISA", "assay_type": "binding", "source_text": "At day 10 to 12 post-fusion, the hybridomas are screened for antibody production and specific binding activity of culture supernatants with TGFβRII protein in ELISA-based binding and blocking assays. Specifically, hybridomas producing anti-TGFβRII mAbs are first identified by detection of TGFβRII-bound antibody with a goat anti-human kappa light chain or anti-mouse IgG horse radish peroxidase (HRP) conjugated antibody according to the following procedure. Human TGFβRII-Fc or mouse TGFβRII-Fc is coated at 100 ng/well on 96 microtiter plates at 4° C. overnight. The coated plates are blocked with the blocking buffer (PBS 0.05% TWEEN® 20 containing 5% dry milk) at room temperature for 2 hours. Hybridoma supernatants or purified antibodies are diluted in PBS with 2% bovine serum albumin (BSA) and 0.05% TWEEN® 20 (ELISA buffer) and incubated in TGFβRII-coated, 96-well, microtiter plates for 30 minutes. […] The absorbance at 450 nanometers (nm) is read for quantification of binding activity of antibodies. […] The absorbance at 405 nm is read for quantification of TGFβRII-binding to TGFβ1, TGFβ2, and TGFβ3. Optical density (OD) values are read on a microtiter plate reader (Molecular Devices Corp., Sunnyvale, Calif.).\nThe specificity of anti-human TGFβRII mAbs is determined by measuring the reactivity of the antibodies to human TGFβRII or mouse TGFβRII by ELISA."}},
  "data": [
    {"molecule": "B1", "values": [
      {"measurement": "Koff", "setting": "[1]", "result": "3.4e-05", "unit": "s⁻¹"},
      {"measurement": "Kon", "setting": "[1]", "result": 430000, "unit": "M⁻¹ s⁻¹"},
      {"measurement": "blocking of human TGFβRII binding to mouse TGFβRII", "setting": "[2]", "result": "do not block"},
      {"measurement": "cross-reactivity with mouse TGFβRII", "setting": "[2]; ELISA", "result": "intermediate or minimal cross reactivity"}
    ]}
  ]
}
